# Results as given in the BET-seq Pho4 binding data (Le et al. 2018).
# The list shows a part of the results. The energies were worked out here from pooled read counts, against the library average; single values are noisy.
# Target: T1, Pho4 (S. cerevisiae) (UniProt P07270)
# T1 sequence: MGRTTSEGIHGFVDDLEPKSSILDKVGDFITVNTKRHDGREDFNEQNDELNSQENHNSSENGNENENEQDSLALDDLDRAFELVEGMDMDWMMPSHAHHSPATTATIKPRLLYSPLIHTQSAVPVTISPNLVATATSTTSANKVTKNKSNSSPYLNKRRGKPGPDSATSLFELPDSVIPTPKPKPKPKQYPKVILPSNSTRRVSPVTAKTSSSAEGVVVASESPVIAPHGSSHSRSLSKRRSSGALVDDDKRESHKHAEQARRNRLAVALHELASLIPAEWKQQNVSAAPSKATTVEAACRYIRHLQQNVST
# Assay: relative binding free energy (BET-seq); higher = weaker binding
# Conditions: reference: library average
row,Sequence,relative binding free energy [kJ/mol]
1,ATGATCACGTGTGTAA,0.377
2,GGTCGCACGTGGAATG,0.669
3,TGCGACACGTGATGGG,0.711
4,GGAGTCACGTGGCCTG,0.126
5,TAGGCCACGTGCGTGT,-1.13
6,ACTTTCACGTGTTGTA,1.09
7,TGTATCACGTGTTCGG,0.753
8,AATTGCACGTGCTAGT,-0.167
9,AGTTACACGTGTAGAT,1.34
10,AGTGCCACGTGGGTGC,-1.26
11,AAATGCACGTGGAGGC,0.0418
12,ATATTCACGTGAAAGG,1.59
13,ATTAACACGTGAGGTG,0.92
14,GGTGACACGTGGTACG,0.0837
15,TAGCACACGTGGTGTT,-0.502
16,GTCATCACGTGCGGGG,0.586
17,TATTTCACGTGTACTG,0.753
18,TATGCCACGTGAGTGG,0.586
19,TGTGGCACGTGTGGAA,-0.167
20,TTTGTCACGTGAGATT,1.09
21,CTTTCCACGTGTGTGT,-0.167
22,AAAATCACGTGGGTAA,0.544
23,TTTTTCACGTGGGTTG,0.795
24,CTGTGCACGTGGTGCT,-0.335
25,TGTGGCACGTGAGTTA,0.502

row,Sequence,relative binding free energy [kJ/mol]
1,GGGGGCACGTGCGAGA,-0.544
2,CGTGGCACGTGCTGTA,-0.711
3,CCTTTCACGTGGGGGG,0.377
4,ATGTACACGTGCGGTC,-0.0418
5,TCGGTCACGTGATGTC,1.46
6,AATGTCACGTGCTAGG,-0.0837
7,ATAGACACGTGTATTG,0.502
8,GGTTTCACGTGCGCGG,1.17
9,AGGTACACGTGCGTTA,0.209
10,TGTAGCACGTGATGTG,-0.0418
11,CTTGACACGTGATGTT,0.46
12,ATTGACACGTGCAGTG,-0.167
13,TTCTGCACGTGTGGAC,0.502
14,CGTATCACGTGAGGGC,1.3
15,ATCGGCACGTGTGTTC,-0.209
16,GGATGCACGTGTACGG,-0.544
17,TAATGCACGTGTAGTG,0.126
18,ATAAGCACGTGTTGAT,-0.711
19,TTGAACACGTGGCAGT,0.377
20,GGTGACACGTGGGGCA,-0.167
21,TTATCCACGTGTGTTA,0.251
22,GTACTCACGTGGGGTG,0.293
23,GTGGGCACGTGGTAGA,-0.377
24,TGGGTCACGTGGGGGG,-0.0418
25,TGTTTCACGTGACGAA,1.34

row,Sequence,relative binding free energy [kJ/mol]
1,GTGATCACGTGTGTAT,0.92
2,TGTGTCACGTGGAGGG,0.0837
3,GTAGACACGTGGTAGG,0.209
4,CGGGGCACGTGGGCTT,-0.46
5,TAGTGCACGTGTCTGA,-0.167
6,TAGGGCACGTGCTTGA,-0.962
7,ACTAGCACGTGGTGGG,-0.335
8,AATGGCACGTGGAGAA,-0.46
9,TGCGACACGTGGCTGG,-0.0418
10,GTGGACACGTGCGTGT,-0.502
11,AAACGCACGTGGGTGA,-0.544
12,CTTTTCACGTGCTGAG,1
13,TATTACACGTGATAGT,0.962
14,TTTTGCACGTGGTGAG,0.167
15,TGTGGCACGTGCGAAG,-0.502
16,GAAAGCACGTGTGTTA,-0.293
17,ATTGTCACGTGTCTAT,0.418
18,AGAGTCACGTGTTCTT,0.293
19,TTCAACACGTGATGGT,0.837
20,TTTATCACGTGAGTAG,1.59
21,AAGGTCACGTGATCTG,0.46
22,AGTATCACGTGAAGAT,1.51
23,GTGAACACGTGCGAGG,-0.126
24,GGTTACACGTGATGTA,0.628
25,ATGTACACGTGAGAAT,0.753

row,Sequence,relative binding free energy [kJ/mol]
1,GTATGCACGTGTGCGG,0
2,GCGATCACGTGGGAGT,0.628
3,TGATTCACGTGGGAAA,0.544
4,TGTCGCACGTGCATGT,-0.586
5,ATATTCACGTGTAAAT,0.962
6,GTATTCACGTGTATCT,1.59
7,CGGTGCACGTGTGGTT,-0.126
8,GTTTACACGTGTGGTC,1.21
9,GTGTACACGTGATCGT,1.13
10,GATACCACGTGGTGGG,-0.335
11,ATATCCACGTGGGTGT,-0.837
12,ACGTACACGTGGGTAG,-0.0418
13,AGTAGCACGTGGGTCG,-0.92
14,GGGATCACGTGATATT,1.13
15,AGGTGCACGTGTTGAA,0.126
16,GGCATCACGTGCTGTG,0.795
17,GGGGTCACGTGCATAG,-0.167
18,GAGGTCACGTGCGGCG,0.167
19,TAGGACACGTGGATAG,0.209
20,TAGAGCACGTGGTTTC,-0.502
21,GAGGTCACGTGCTTTG,0.879
22,AATGTCACGTGTCTTT,0.418
23,ATCTTCACGTGTAGTG,0.377
24,GTAAACACGTGTTGTA,0.251
25,GGGAACACGTGGTAGT,0

row,Sequence,relative binding free energy [kJ/mol]
1,GCTTTCACGTGTAGAG,1.63
2,AGGTGCACGTGTTGCG,0.293
3,ATTATCACGTGGCATT,0.0837
4,AGTAACACGTGGTTTA,-0.544
5,GGAATCACGTGGTTGC,0.711
6,GAGAGCACGTGGGCTG,-1.42
7,TATGGCACGTGGTATT,-0.418
8,CAGTTCACGTGGTGGC,0.586
9,CTTGTCACGTGTTTTC,0.502
10,TCGGACACGTGAATGG,1.3
11,AAGGGCACGTGTGTTC,-0.795
12,GTTGACACGTGGTTGA,-0.418
13,ATTGTCACGTGAATGG,1.26
14,TCGTTCACGTGAGATG,2.09
15,TGTAACACGTGCATTT,0.418
16,CGGGGCACGTGGGGTC,-0.92
17,ATGTGCACGTGATTAT,0.209
18,AGGGACACGTGGAATT,0.669
19,TAAAGCACGTGCGGTT,-0.962
20,CGAGGCACGTGTTTGA,-0.544
21,GTAGGCACGTGGCTCG,-0.502
22,GTGTTCACGTGATATC,1.42
23,TCTTGCACGTGGCATT,-0.126
24,CGGGTCACGTGTTGTA,0.209
25,AGGAGCACGTGGAGTA,-0.167

row,Sequence,relative binding free energy [kJ/mol]
1,TTGCTCACGTGCGGTG,0.167
2,GTTCACACGTGGTAGA,0.795
3,GTTGACACGTGCTTTG,-0.0418
4,GGTTTCACGTGGAAGA,1.59
5,TTATGCACGTGGATTC,0.335
6,GTTGTCACGTGTGTTA,0.502
7,GTGATCACGTGCTTTT,0.46
8,AGATGCACGTGACGGG,0.795
9,AGGGCCACGTGTCGTG,-0.126
10,AATGCCACGTGGTGTG,-0.795
11,TAGTGCACGTGTTTCT,-0.0837
12,GGAGGCACGTGCAGAG,-0.126
13,CGGTGCACGTGGCGTG,-0.251
14,TGTTACACGTGAGCGT,0.92
15,TGATCCACGTGTGCGT,0.753
16,TTGTGCACGTGTTTCC,-0.209
17,TCAATCACGTGTAGGG,0.46
18,GGGATCACGTGGATTT,1.34
19,GTAGACACGTGATGAT,0.92
20,ATTCGCACGTGTCGGG,0.0837
21,TTAGTCACGTGGTATC,-0.293
